B1: Hsp27 IPV H peptide (EITIPVTHE) [human] / Hsp27 alpha-crystallin domain (ACD, […]) [human] (parent complex)
chain 1: EITIPVTHE
chain 2: not shown

Variants of: B1
Experiment: ITC; parent: 1.15e+04 nM

| Kd [µM] | Variant |
| --- | --- |
| 9.43 | chain 1 T7A |
| 12.6 | chain 1 I2A |
